Data on 57 molecules can be found in publication PMC4336329 (PLoS ONE, 2015).

Among all 310,000 compounds or so, about 14,000 (4.5%) showed an effect of 50% or more. The effect is printed as a negative number. The list shows a part of the results.
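Further: peak tail current of the secondary pulse compared with the same well before compound.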

In the experiment the target is human ether-à-go-go-related gene (hERG) potassium channel (human, UniProt Q12809). Nature of the experiment: primary screen, population patch clamp on CHO cells stably expressing hERG.
Chain of human ether-à-go-go-related gene (hERG) potassium channel (Q12809 whole entry, looked up): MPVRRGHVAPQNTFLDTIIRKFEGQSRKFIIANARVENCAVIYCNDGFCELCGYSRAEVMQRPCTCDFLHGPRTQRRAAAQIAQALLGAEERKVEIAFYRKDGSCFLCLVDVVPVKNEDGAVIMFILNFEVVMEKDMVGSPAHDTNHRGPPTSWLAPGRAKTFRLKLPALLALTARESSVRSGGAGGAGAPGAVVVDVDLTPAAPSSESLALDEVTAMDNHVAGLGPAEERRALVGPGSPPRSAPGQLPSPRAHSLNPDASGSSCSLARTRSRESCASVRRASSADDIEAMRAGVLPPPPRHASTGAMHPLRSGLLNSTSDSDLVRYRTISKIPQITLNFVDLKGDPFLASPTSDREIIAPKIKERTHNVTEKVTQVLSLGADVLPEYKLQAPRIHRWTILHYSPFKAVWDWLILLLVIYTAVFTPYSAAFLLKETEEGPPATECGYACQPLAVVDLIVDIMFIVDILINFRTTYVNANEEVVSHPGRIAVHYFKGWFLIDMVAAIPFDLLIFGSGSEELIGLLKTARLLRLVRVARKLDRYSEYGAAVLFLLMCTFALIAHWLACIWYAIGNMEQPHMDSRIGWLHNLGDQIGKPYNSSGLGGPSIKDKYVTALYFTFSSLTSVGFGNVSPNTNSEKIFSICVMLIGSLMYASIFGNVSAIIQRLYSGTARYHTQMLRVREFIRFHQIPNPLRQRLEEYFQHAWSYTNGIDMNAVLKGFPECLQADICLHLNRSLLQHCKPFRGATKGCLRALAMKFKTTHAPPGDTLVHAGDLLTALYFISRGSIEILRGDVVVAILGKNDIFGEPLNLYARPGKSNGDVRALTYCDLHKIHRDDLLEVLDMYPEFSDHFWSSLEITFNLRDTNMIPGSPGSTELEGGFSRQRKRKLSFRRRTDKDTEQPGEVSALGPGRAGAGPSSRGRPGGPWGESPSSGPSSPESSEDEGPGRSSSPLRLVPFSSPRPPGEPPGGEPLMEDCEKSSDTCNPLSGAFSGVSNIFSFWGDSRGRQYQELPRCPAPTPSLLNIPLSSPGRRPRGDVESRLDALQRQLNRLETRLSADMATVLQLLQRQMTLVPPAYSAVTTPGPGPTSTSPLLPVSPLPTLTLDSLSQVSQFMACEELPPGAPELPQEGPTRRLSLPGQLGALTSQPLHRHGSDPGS
`CC1(C)CC(=O)c2sc(N)nc2C1`: the “hERG current change (%, negative = inhibition) at 10uM” value is -11.1%. As for `O=C(COC(=O)c1cccnc1Cl)NCCc1ccccc1`, the “hERG current change (%, negative = inhibition) at 10uM” value amounted to 3.16%. With `COc1cc(CN=C(C)c2c(O)n(C3CCCCC3)c(=O)[nH]c2=O)cc(OC)c1`, the “hERG current change (%, negative = inhibition) at 10uM” value worked out at 15.4%. Regarding `CCOC(=O)CCCCC(=O)c1[nH]c(=O)[nH]c1CN1CCOCC1`, the “hERG current change (%, negative = inhibition) at 10uM” value stood at 20%. In the case of `CNc1nc(-c2ccccc2)cc(-c2ccccc2)n1`, the “hERG current change (%, negative = inhibition) at 10uM” value was found to be 10.8%. As for `O=C1NN(c2cccc(Br)c2)C(=O)/C1=C/c1cccs1`, the figure is 12.5%; as for `CC(C)COc1ccc(-c2nnc(-c3ccncc3)o2)cc1`, -12%. Then `Cc1cccc(N(CC(=O)N2CCOCC2)S(C)(=O)=O)c1C`, with -11%. `Oc1ccc(C[C@H]2CNCCN2CCc2cccc(F)c2)cc1`: the “hERG current change (%, negative = inhibition) at 10uM” value is -30.4%. As for `O=C(O)CN1C(=O)NC2NC(=O)NC21` (stereo not drawn), the figure is 12.9%; as for `COc1ccc(CCNC(=O)CCCCC(=O)NCCc2ccc(OC)c(OC)c2)cc1OC`, 4.7%; as for `C/C(=N\Nc1nc(N)cc(Cl)n1)c1cccc([N+](=O)[O-])c1`, 7.11%. Then `O=C(O)c1ccc(/C=N/N2CCN(Cc3ccccc3)CC2)cc1`, with -2.12%.

Consider `Cc1nn(C)cc1C(C)NCc1c(C(=O)N2CCCCCCC2)nc2ccc(Cl)cn12` (stereo not drawn), for which the “hERG current change (%, negative = inhibition) at 10uM” value is on record as 8.88%. As for `CCn1c(Cc2ccc(OC)cc2)nnc1SCC(=O)NC1CC1`, the figure is 6.39%; as for `NNS(=O)(=O)c1ccc(Sc2ccccn2)c([N+](=O)[O-])c1`, 11.3%; as for `COCCn1c(SC2CCCCC2=O)nnc1-c1ccncc1` (stereo not drawn), 18.9%. As to `CCCOc1ccc(N2C(=O)CC(N3CCCC(C(=O)N4CCCC4)C3)C2=O)cc1` (stereo not drawn), the “hERG current change (%, negative = inhibition) at 10uM” value is given as 4.63%. `COc1ccc(S(=O)(=O)N2CCOC2CNC(=O)C(=O)NCc2ccncc2)cc1OC` (stereo not drawn): the “hERG current change (%, negative = inhibition) at 10uM” value is given as 10.3%. For `CCN(CC)C(=O)Cn1cnc2sc(C(=O)N3CCN(c4ccc(F)cc4)CC3)c(C)c2c1=O`, the “hERG current change (%, negative = inhibition) at 10uM” value was -37%. On to `Cc1c(C)c2ccc(OCC(=O)NC3CCN(Cc4ccccc4)CC3)c(C)c2oc1=O`, for which the “hERG current change (%, negative = inhibition) at 10uM” value is -42.7%. Take `CC(C)(C)c1ccc(C2CC2C(=O)N/N=C\c2cc3ccccc3nc2Cl)cc1` (stereo not drawn): the “hERG current change (%, negative = inhibition) at 10uM” value turned out to be 0.599%.

Regarding `CC(C)N=C(NC#N)SCc1ccc(F)cc1`, the “hERG current change (%, negative = inhibition) at 10uM” value is recorded as -2.23%. As for `O=C(/C=C/c1ccc([N+](=O)[O-])s1)N1CCCC1`, the figure is -52.9%; as for `COc1ccc(CCN2C(=O)CC(C(N)=O)SC2=Nc2ccccc2)cc1` (stereo not drawn), -26.2%; as for `COC(=O)c1c(NC(=O)CN2CCC3(O)CCCCC3C2c2ccc(OC)cc2OC)sc(C)c1C` (stereo not drawn), 18.3%.

Take `CCOC(=O)N1CCN(C(=O)c2oc3ccc(S(=O)(=O)N4CCOCC4)cc3c2C)CC1`: the “hERG current change (%, negative = inhibition) at 10uM” value was -3.71%.

As to `CC1(C(=O)NCc2cccnc2)CCC(=O)N1CCc1ccccc1` (stereo not drawn), the “hERG current change (%, negative = inhibition) at 10uM” value was -10.9%.

Turning to `OCc1ccccc1OCCCOc1cccc2cccnc12`, the “hERG current change (%, negative = inhibition) at 10uM” value is -3.4%.

Regarding `CNC(=O)c1[nH]cnc1C(=O)Nc1ccccc1`, the “hERG current change (%, negative = inhibition) at 10uM” value is on record as 10.3%. As for `CCc1ccc2oc(-c3cc(N)cc(C)c3O)nc2c1`, the figure is 7.4%; as for `CCn1c2ccccc2c2nnc(SCC(=O)NC3CCS(=O)(=O)C3)nc21` (stereo not drawn), 8.22%; as for `O=C(c1c(F)cccc1F)N(C1CCCCC1)C1CCCCC1`, -8.71%. Then `CS(=O)(=O)N1CCCC(C(=O)NCCc2ccc(Cl)cc2)C1` (stereo not drawn), with -24.1%; and `COc1ccc(OCc2nnc3n2N=C(c2ccc(OC)cc2)CS3)cc1`, with -26.8%. As to `CN(C)/C=N/C(=S)Nc1ccc(F)cc1`, the “hERG current change (%, negative = inhibition) at 10uM” value amounted to 14.4%. As for `CCN(CC)S(=O)(=O)c1cccc(-c2nnc(SCC(=O)NC)n2CCc2ccccc2)c1`, the figure is -27.3%; as for `CC(C)CN1CCC(C(=O)N2CCN(c3ccccc3F)CC2)CC1`, -32%. In the case of `Cc1cc(C(=O)O)cc(S(=O)(=O)Nc2ccccc2C(=O)NC(C)c2ccccc2)c1C` (stereo not drawn), the “hERG current change (%, negative = inhibition) at 10uM” value worked out at 18.8%. For `O=C(c1ccc(Br)cc1)N1CCCC(c2nc(-c3cccs3)no2)C1` (stereo not drawn), the “hERG current change (%, negative = inhibition) at 10uM” value is listed as -16.1%. Then `NC(=O)COC(=O)CC12CC3CC(CC(Br)(C3)C1)C2`, with 24.6%. Regarding `CC(C)(Oc1ccc(Br)cc1Cl)C(=O)Nc1ccon1`, the “hERG current change (%, negative = inhibition) at 10uM” value was -1.6%. Then `C=CCOc1ccc(/C=N/Nc2ccccn2)cc1OC`, with 17.2%; and `Cc1cc(-c2nn(-c3ccccc3F)cc2CN2CCCC(C(N)=O)C2)c(C)s1` (stereo not drawn), with -20.5%. As for `CC/C(Cc1ccccc1)=N\NC(=O)c1cc([N+](=O)[O-])cc([N+](=O)[O-])c1`, the figure is -42.8%. As for `COc1cccc2cc(CC(=O)c3cc(C)ccc3C)c(=O)oc12`, the “hERG current change (%, negative = inhibition) at 10uM” value is on record as -7%. With `CC(C)N(C(=O)COC(=O)[C@H](C)NC(=O)c1ccco1)c1ccccc1`, the “hERG current change (%, negative = inhibition) at 10uM” value is listed as 19.6%. Then `CCCCNS(=O)(=O)c1ccc2c(c1)oc(=O)n2CC(=O)OCC`, with 5.06%; and `Cc1cccc(Nc2nc(NCc3ccco3)nc(N)c2[N+](=O)[O-])c1`, with 10.6%. Consider `CCCN(CCC)CC(=O)NCC1(c2ccccc2)CCOCC1.Cl`, for which the “hERG current change (%, negative = inhibition) at 10uM” value is -7.83%. For the molecule `CCC(c1nnnn1Cc1ccc2c(c1)OCO2)N1CCN(c2ccc(OC)cc2)CC1` (stereo not drawn), the “hERG current change (%, negative = inhibition) at 10uM” value is reported as -44.6%. As to `O=C(Oc1ccc(C(=S)N2CCOCC2)cc1Br)c1ccccc1F`, the “hERG current change (%, negative = inhibition) at 10uM” value is recorded as 17.8%.

On to `CCCCN(C(=O)c1ccc(-c2ccc(Cl)cc2)o1)c1c(N)n(CCC)c(=O)[nH]c1=O`, for which the “hERG current change (%, negative = inhibition) at 10uM” value is given as 0.856%. As for `COc1cccc(/C=C(\C#N)C(=O)NC2CCS(=O)(=O)C2)c1` (stereo not drawn), the figure is 1.19%; as for `COc1ccc(Cl)cc1C(=O)OCC(=O)N(CC(C)C)c1c(N)n(Cc2ccccc2)c(=O)[nH]c1=O`, -11.2%; as for `CCN1CC2([N+](=O)[O-])CC=C(OC)C([N+](=O)[O-])(C1)C2` (stereo not drawn), 6.62%. As for `COc1cc(/C=C/C(=O)OCC(=O)N2CCN(S(=O)(=O)c3ccc(C)cc3C)CC2)ccc1O`, the figure is 8.3%.
